# In PubChem BioAssay (Tox21):
# Several values for one entry are separate records, joined by “and”; a condition that tells them apart may be missing. Equal values may be shown once. This list was built around the results that the source calls inconclusive (neither active nor inactive); the mix of calls is not that of the screen. For some of these results: Potencies of inconclusive entries are doubtful fits and often do not repeat. Where a structure was tested more than once in an assay, its records may differ in their call. Activity calls are given as the source filed them. Unless noted, the call rests on the fitted dose curve; in most records, active means well fitted curve in the direction sought with a large enough effect in the repeat runs; inconclusive means weak or mixed curves; inactive means no such curve, though single readings can be large; an effect the other way counts as inactive or inconclusive.
# Assays:
# [1] = target: Peroxisome proliferator-activated receptor delta (Homo sapiens) (UniProt Q03181); experiment: qHTS assay to identify small molecule antagonists of the peroxisome proliferator-activated receptor delta (PPARd) signaling pathway (AID 743215; active means well fitted inhibition curve with a large enough effect in the signal ratio in the repeat runs, not every such curve was filed as active; inconclusive means weak or mixed curves, or effect the other way; inactive means no such curve, though single readings can be large or run the other way; the % refers to the signal ratio;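 further: cells stimulated with agonist L165041 at 300 nM final during compound exposure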; further: potency means the concentration at half of the fitted maximal effect; on ratio activity, negative = inhibition: on the % scale 0 is the no-effect control and ±100 the full control effect); details: HEK293H PPARd-UAS-bla, beta-lactamase FRET ratio, antagonist, 17 h; ratio activity, negative = inhibition: at 62 µM (top of the series) unless noted
# Summary of the method: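 Read-out is beta-lactamase FRET fluorescence, measured 2 h after substrate addition at room temperature. Beforehand, UAS-bla HEK293H cells carrying the PPARd reporter were exposed to compounds with L165041 at 300 nM final for 17 h at 37 C.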
# [2] = qHTS assay to identify small molecule agonists of the retinoic acid receptor (RAR) signaling pathway (AID 1159553); details: C3RL4 RARE luciferase reporter, agonist, 6 h; activation: at 73.3 µM (top of the series) unless noted; further: potency means the concentration at half of the fitted maximal effect; on activation: on the % scale 0 is the no-effect control and ±100 the full control effect
# Summary of the method: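 Luminescence from a RARE-driven luciferase reporter in C3RL4 cells served as the read-out, measured after 30 min with detection reagent at room temperature. Compounds in DMSO were applied for 6 hr at 37 C following overnight seeding.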
# [3] = target: Nuclear receptor subfamily 1 group I member 2 (Homo sapiens) (UniProt O75469); experiment: Human pregnane X receptor (PXR) small molecule agonists, qHTS assay (AID 1346982); further: potency means the concentration at half of the fitted maximal effect; nearly all actives have a fitted effect of over 35% in size
# Summary of the method: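 Luciferase signal from ONE-Glo (30 min, room temperature) measured activation of hPXR-driven CYP3A4 reporter expression in PXR-Luc HepG2 cells treated with compounds for 24 hr at 37 C.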
# [4] = target: Cytochrome P450 2C19 (Homo sapiens) (UniProt P33261); experiment: Cytochrome P450 Family 2 Subfamily C Member 19 (CYP2C19) small molecule antagonists: luciferase reporter qHTS assay (AID 1671197); further: nearly all actives have a fitted effect of over 65% in size; further: potency means the concentration at half of the fitted maximal effect
# Summary of the method: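 CYP2C19 P450-Glo, 1536-well qHTS. Cpd + enzyme/proluciferin substrate 10 min RT; + NADPH regen, 37C 1 h; stop with luciferin detection reagent, 20 min RT, luminescence (RLU). Pos ctrl ketoconazole.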
# [5] = qHTS assay to identify small molecule antagonists of the estrogen related receptor (ERR) signaling pathway from Tox21 library - cell viability counter screen (AID 1224834); further: nearly all actives have a fitted effect of over 30% in size; further: potency means the concentration at half of the fitted maximal effect; on viability change, negative = cytotoxic: on the % scale 0 is the no-effect control and ±100 the full control effect
# Summary of the method: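 Fluorescence from CellTiter-Fluor gives the viability read-out, taken 30 min after reagent addition. Before that, ERR cells seeded 6 h earlier were incubated with compounds for 17.5 h at 37 C.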
# [6] = qHTS assay to identify small molecule antagonists of the estrogen receptor alpha (ER-alpha) signaling pathway - cell viability counter screen (AID 743074; calls by dose curve;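 further: HEK293 cells carrying ER-alpha-UAS-bla reporter stimulated with 17beta-estradiol; nearly all actives have a fitted effect of over 45% in size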; further: potency means the concentration at half of the fitted maximal effect)
# [7] = qHTS assay to identify small molecule antagonists of the vitamin D receptor (VDR) signaling pathway - cell viability counter screen (AID 743225); details: VDR-bla HEK293T viability, CellTiter-Glo luminescence, 16 h; viability change, negative = cytotoxic: at 61 µM (top of the series) unless noted; further: nearly all actives have a fitted effect of over 50% in size; further: potency means the concentration at half of the fitted maximal effect
# Summary of the method: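 VDR-bla HEK 293T cells, 4 h pre-incubation at 37C, then compound plus 1-alpha,25-dihydroxyvitamin D3 (3 nM final) for 16 h. After the beta-lactamase FRET read, CellTiter-Glo was added to the same wells; luminescence after 30 min at room temperature.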
# [8] = Caspase-3/7 induction in CHO-K1 cells by small molecules, qHTS cell viability counter screen (AID 1346979); further: nearly all actives have a fitted effect of over 35% in size; further: potency means the concentration at half of the fitted maximal effect; on activity change, negative = cytotoxicity: on the % scale 0 is the no-effect control and ±100 the full control effect
# Summary of the method: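 Wild-type CHO-K1 cells were seeded at 1,500 per well, rested 5hr at 37 C, then exposed to compounds in DMSO. After 16hr, CellTiter-Fluor reagent was added and fluorescence read 1hr later as the viability measure.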
# [9] = qHTS assay for identifying genotoxic compounds that show differential cytotoxicity against isogenic chicken DT40 cell lines with known DNA damage response pathways - wild type cell line (AID 743012); details: DT40 wild type chicken cells viability, CellTiter-Glo, 40 h; activity change, negative = cytotoxicity: at 68.4 µM (top of the series) unless noted; further: nearly all actives have a fitted effect of over 60% in size; further: potency means the concentration at half of the fitted maximal effect
# Summary of the method: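 Wild type DT40, 300 cells/well, ~0.5 h settle at 37 C/5% CO2; compounds in DMSO added by pintool; 40 h at 37 C/5% CO2; CellTiter-Glo, 30 min RT; luminescence.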
# [10] = qHTS RealTime-Glo MT Cell Viability Assay in HEK293 cells - 24 hour (AID 1224886); further: top concentration of the series differs between compounds; on the % scale 0 is the no-effect control and ±100 the full control effect; nearly all actives have a fitted effect of over 50% in size
# Summary of the method: (§1)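 Nonlytic real-time viability readout: viable cells convert prosubstrate to NanoLuc substrate, giving luminescence proportional to live cell number. HEK293, 600 cells/well, compound added after 5 h, continuous culture at 37 C.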
# [11] = qHTS assay to identify small molecule antagonists of the peroxisome proliferator-activated receptor delta (PPARd) signaling pathway - cell viability counter screen (AID 743213); details: PPARd-bla HEK293H viability, CellTiter-Glo luminescence, 17 h; viability change, negative = cytotoxic: at 62 µM (top of the series) unless noted; further: nearly all actives have a fitted effect of over 50% in size; further: potency means the concentration at half of the fitted maximal effect
# Summary of the method: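 HEK293H PPARd UAS-bla cells, 5 h pre-incubation, compound + L165041 300 nM final, 17 h 37 C; B/G FRET substrate 2 h RT; then CellTiter-Glo 30 min RT, luminescence.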
# [12] = qHTS assay to identify small molecule agonists of the vitamin D receptor (VDR) signaling pathway - cell viability counter screen (AID 743224); further: nearly all actives have a fitted effect of over 50% in size; further: potency means the concentration at half of the fitted maximal effect
# Summary of the method: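 Luminescence from CellTiter-Glo, read after 30 min at room temperature, reports viability of VDR-bla cells treated with compounds for 16 h at 37C in the wells used for the beta-lactamase FRET read.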
# [13] = target: Estrogen receptor (Homo sapiens) (UniProt P03372); experiment: qHTS assay to identify small molecule agonists of the estrogen receptor alpha (ER-alpha) signaling pathway using the BG1 cell line (AID 743079); details: BG1Luc4E2 cells, ERE-luciferase agonist, 22 h; activation: at 70.3 µM (top of the series) unless noted; further: nearly all actives have a fitted effect of over 20% in size; further: potency means the concentration at half of the fitted maximal effect
# [14] = qHTS RealTime-Glo MT Cell Viability Assay in HEK293 cells - 32 hour (AID 1224868); further: nearly all actives have a fitted effect of over 50% in size; further: potency means the concentration at half of the fitted maximal effect
# Summary of the method: as §1
# [15] = target: Estrogen receptor beta (Homo sapiens) (UniProt Q92731); experiment: qHTS assay to identify small molecule agonists of the estrogen receptor beta (ER-beta) signaling pathway (AID 1259377; active means well fitted activation curve with a large enough effect in the signal ratio in the repeat runs, not every such curve was filed as active; inconclusive means weak or mixed curves, or effect the other way; the % refers to the signal ratio; further: potency means the concentration at half of the fitted maximal effect); details: ER-beta-UAS-bla HEK293T, beta-lactamase FRET ratio, 16 h; activation: at 92.4 µM (top of the series) unless noted
# Summary of the method: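 ER-beta-UAS-bla HEK293T (GripTite) cells carrying a UAS-driven beta-lactamase reporter, in medium with 2% charcoal-stripped FBS, were exposed to compounds for 16 hr at 37C; LiveBLAzer B/G FRET substrate was then added and fluorescence read after 2 hours at room temperature.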
# [16] = target: Thyrotropin receptor (Homo sapiens) (UniProt P16473); experiment: qHTS assay to identify small molecule agonists of the thyroid stimulating hormone receptor (TSHR) signaling pathway (AID 1224843; calls by dose curve; further: nearly all actives have a fitted effect of over 45% in size; further: potency means the concentration at half of the fitted maximal effect); details: TSHR-HEK293 cells, cAMP HTRF, agonist mode, 30 min; activation: at 92.4 µM (top of the series) unless noted
# Summary of the method: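 TSHR-expressing HEK293 cells (800 per well) were exposed to compounds for 30 min at room temperature. cAMP was then detected by HTRF competition with cAMP-d2 and anti-cAMP cryptate, read after 1 h at room temperature. Fifteen concentrations, triplicate.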
# [17] = qHTS assay for small molecule agonists of the p53 signaling pathway (AID 651631; calls by dose curve; further: nearly all actives have a fitted effect of over 15% in size; further: potency means the concentration at half of the fitted maximal effect); details: HCT-116 p53RE-bla reporter, beta-lactamase FRET ratio, 16 h; activation: at 73.3 µM (top of the series) unless noted
# Summary of the method: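 HCT-116 cells carrying a stable p53 response element–beta-lactamase reporter were plated, rested 5 h at 37 °C, then exposed to compound in DMSO for 16 h at 37 °C; reporter activity was read as FRET substrate fluorescence after 2 h at room temperature.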
# [18] = qHTS assay to identify small molecule agonists of H2AX - cell viability counter screen (AID 1224847; calls by dose curve; further: nearly all actives have a fitted effect of over 30% in size; further: potency means the concentration at half of the fitted maximal effect)
# Summary of the method: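 Wild-type CHO-K1 cells (10% FBS medium) were plated overnight at 37C, exposed to compounds at 15 concentrations for 3 hr at 37C (0.76% DMSO final), and viability was read as CellTiter-Glo luminescence after 30 min at room temperature.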
# Tags describe the fitted curve by direction and shape or compound fluorescence and quenching.
# UniProt Q03181, sequence (Q03181 whole entry, looked up): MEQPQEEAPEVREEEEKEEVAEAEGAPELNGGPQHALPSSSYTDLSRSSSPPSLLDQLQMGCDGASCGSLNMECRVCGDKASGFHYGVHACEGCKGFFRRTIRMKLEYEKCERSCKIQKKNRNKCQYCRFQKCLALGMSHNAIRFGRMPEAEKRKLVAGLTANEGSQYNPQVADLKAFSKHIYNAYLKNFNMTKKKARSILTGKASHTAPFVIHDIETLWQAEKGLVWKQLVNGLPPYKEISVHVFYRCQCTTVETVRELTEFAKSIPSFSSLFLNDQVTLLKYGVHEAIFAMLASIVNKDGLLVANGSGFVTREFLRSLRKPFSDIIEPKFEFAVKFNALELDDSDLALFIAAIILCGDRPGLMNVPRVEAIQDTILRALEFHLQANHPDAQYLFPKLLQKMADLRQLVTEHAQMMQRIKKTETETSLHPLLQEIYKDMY
# UniProt P03372, sequence (P03372 whole entry, looked up): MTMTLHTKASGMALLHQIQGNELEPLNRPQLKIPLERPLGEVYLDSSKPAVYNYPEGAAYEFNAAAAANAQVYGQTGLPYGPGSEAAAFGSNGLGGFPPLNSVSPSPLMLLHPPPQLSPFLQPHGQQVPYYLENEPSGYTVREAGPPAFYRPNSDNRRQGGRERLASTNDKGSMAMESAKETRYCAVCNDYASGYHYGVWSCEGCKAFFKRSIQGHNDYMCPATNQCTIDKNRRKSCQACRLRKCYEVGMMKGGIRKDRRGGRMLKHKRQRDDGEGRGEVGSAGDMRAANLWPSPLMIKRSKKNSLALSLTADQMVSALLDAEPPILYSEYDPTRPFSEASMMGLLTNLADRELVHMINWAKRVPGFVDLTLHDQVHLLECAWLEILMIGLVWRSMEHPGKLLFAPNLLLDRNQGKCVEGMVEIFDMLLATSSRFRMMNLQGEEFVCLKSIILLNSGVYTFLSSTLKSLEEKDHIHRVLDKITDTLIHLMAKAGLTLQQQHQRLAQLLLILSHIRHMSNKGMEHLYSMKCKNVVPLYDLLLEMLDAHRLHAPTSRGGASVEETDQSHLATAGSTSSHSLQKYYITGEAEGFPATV
# UniProt P16473, sequence (P16473 whole entry, looked up): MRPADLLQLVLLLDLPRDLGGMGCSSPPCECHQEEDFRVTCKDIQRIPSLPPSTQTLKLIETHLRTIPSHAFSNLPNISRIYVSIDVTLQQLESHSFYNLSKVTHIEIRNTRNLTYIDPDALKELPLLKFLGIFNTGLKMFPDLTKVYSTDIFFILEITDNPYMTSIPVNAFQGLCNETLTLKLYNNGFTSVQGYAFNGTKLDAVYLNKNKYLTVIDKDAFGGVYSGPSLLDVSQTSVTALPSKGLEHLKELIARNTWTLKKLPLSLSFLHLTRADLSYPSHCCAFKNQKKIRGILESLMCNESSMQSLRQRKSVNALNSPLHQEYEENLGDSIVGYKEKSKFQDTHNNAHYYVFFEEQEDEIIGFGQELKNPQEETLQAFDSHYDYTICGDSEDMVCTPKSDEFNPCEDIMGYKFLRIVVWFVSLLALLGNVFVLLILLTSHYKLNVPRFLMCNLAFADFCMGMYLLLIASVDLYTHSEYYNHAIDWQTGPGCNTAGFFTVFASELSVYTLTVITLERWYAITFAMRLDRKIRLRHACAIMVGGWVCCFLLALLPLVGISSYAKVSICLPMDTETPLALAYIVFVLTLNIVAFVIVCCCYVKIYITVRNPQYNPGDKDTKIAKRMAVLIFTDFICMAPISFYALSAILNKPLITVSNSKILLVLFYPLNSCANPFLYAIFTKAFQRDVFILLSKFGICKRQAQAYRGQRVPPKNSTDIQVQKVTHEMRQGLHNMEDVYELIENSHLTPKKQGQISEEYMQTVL
# UniProt O75469, sequence (O75469 whole entry, looked up): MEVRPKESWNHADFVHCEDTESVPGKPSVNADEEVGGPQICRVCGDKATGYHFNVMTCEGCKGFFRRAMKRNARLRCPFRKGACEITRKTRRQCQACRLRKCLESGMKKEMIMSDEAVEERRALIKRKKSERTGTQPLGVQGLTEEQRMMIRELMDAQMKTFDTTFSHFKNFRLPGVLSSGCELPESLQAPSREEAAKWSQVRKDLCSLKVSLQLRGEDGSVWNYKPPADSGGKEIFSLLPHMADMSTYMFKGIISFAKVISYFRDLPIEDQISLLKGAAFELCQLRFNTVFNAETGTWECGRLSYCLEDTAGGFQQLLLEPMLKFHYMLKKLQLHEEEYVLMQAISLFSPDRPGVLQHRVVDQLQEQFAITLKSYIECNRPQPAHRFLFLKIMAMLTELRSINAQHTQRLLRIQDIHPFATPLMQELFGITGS
# UniProt P33261, sequence (P33261 whole entry, looked up): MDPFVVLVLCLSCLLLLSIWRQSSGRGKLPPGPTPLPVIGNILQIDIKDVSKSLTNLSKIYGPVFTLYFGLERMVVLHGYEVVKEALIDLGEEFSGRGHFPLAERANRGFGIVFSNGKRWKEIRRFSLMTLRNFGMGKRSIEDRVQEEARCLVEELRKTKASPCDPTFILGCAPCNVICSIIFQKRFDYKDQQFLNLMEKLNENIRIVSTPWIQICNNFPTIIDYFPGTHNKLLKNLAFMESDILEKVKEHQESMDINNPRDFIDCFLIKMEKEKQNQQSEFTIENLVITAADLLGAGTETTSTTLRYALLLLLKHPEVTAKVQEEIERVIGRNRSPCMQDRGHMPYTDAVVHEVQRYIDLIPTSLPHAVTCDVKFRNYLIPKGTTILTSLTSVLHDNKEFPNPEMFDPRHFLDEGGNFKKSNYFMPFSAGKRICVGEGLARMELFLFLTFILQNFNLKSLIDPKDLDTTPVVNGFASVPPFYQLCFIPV
# UniProt Q92731, sequence (Q92731 whole entry, looked up): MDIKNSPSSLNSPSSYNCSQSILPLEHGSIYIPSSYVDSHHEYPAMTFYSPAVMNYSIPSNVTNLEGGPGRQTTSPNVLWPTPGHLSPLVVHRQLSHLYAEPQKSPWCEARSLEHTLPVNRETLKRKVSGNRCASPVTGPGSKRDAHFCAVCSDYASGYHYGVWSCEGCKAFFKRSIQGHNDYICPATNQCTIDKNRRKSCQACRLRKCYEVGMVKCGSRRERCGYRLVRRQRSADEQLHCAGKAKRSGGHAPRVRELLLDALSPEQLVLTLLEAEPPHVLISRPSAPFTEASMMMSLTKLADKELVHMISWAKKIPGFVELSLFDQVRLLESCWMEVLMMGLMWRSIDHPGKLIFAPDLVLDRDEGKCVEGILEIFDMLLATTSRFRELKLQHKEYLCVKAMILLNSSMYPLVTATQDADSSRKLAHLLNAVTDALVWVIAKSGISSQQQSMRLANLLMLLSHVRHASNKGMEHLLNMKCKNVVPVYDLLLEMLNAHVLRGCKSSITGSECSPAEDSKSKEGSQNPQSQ
structure (smiles),measurement,setting,value
CNC(=O)O/N=C(\C)C(C)S(C)(=O)=O (stereo not given),Potency,[1],inactive
same,activation,[2],inconclusive: 5.21% [phenotype inactive] [at 920 µM]
same,Potency,[3],"inconclusive: 251 µM [activator, partial curve, poor fit]"
same,Potency,[4],inactive
O=C(Cc1ccccc1)OCc1ccccc1,Potency,[2],active: 61.6 µM
same,Potency,[5],inactive
O=[N+]([O-])c1cc([As](=O)(O)O)ccc1O,Potency,[6],"inactive and inconclusive: 4.36 µM [cytotoxic, full curve, poor fit]"
same,Potency,[7],"inconclusive: 12.3 µM [cytotoxic, full curve, poor fit]"
same,Potency,[5],"active: 60.7 µM and inconclusive: 34.4 µM [cytotoxic, partial curve] and inconclusive: 29.8 µM [cytotoxic, partial curve]"
same,Potency,[8],"inconclusive: 68.1 µM [cytotoxic, single point] and inconclusive: 61.1 µM [cytotoxic, partial curve] and inactive"
same,Potency,[3],"inconclusive: 60.7 µM [activator, partial curve, poor fit]"
same,Potency,[4],inactive
Cc1cccc(C)c1N,"activity change, negative = cytotoxicity",[9],inconclusive: 7.79% [at 95 µM]
same,Potency,[2],inactive
same,Potency,[10],inactive
same,Potency,[4],"inconclusive: 93.2 µM [inhibitor, single point]"
CCCC(C)(COC(N)=O)COC(N)=O,Potency,[1],inactive
same,Potency,[7],inactive
same,Potency,[2],"inconclusive: 72.8 µM [activator, partial curve, poor fit]"
same,Potency,[8],inactive
same,Potency,[4],active: 33.7 µM
ClSC(Cl)(Cl)Cl,Potency,[11],"inconclusive: 61.8 µM [rising, partial curve, poor fit]"
ClCC(Cl)CCl,Potency,[11],"inconclusive: 5.54 µM [cytotoxic, single point]"
same,Potency,[1],"inconclusive: 7.83 µM [fluorescent, full curve, poor fit]"
same,Potency,[12],"inactive and inconclusive: 61.7 µM [cytotoxic, partial curve, poor fit]"
CN1C(=S)CN=C(c2ccccc2)c2cc(Cl)ccc21,Potency,[13],"inconclusive: 26.6 µM [inhibitor, partial curve]"
same,Potency,[11],"inconclusive: 11.9 µM [rising, partial curve, poor fit]"
same,Potency,[1],inactive
same,Potency,[14],"inconclusive: 7.56 µM [cytotoxic, partial curve, poor fit]"
same,Potency,[15],inactive
CC(C)(C)NCC(O)c1cc(Cl)c(N)c(C(F)(F)F)c1 (stereo not given),Potency,[6],inactive
same,Potency,[11],inactive
same,Potency,[1],inactive
same,Potency,[12],inactive
same,Potency,[5],"inconclusive: 16.8 µM [cytotoxic, partial curve]"
same,Potency,[16],active: 0.0021 µM
same,Potency,[14],inactive
same,Potency,[15],inactive
same,Potency,[8],"inconclusive: 7.5 µM [cytotoxic, single point]"
O=P(OCCCl)(OCCCl)OCCCl,Potency,[17],inactive
same,Potency,[6],"inconclusive: 15.5 µM [rising, partial curve, poor fit]"
same,Potency,[8],"inconclusive: 68 µM [cytotoxic, single point] and inactive"
same,Potency,[4],"inconclusive: 89.4 µM [inhibitor, single point]"
CNC(=O)O/N=C/C(C)(C)S(C)=O (stereo not given),Potency,[17],"inconclusive: 0.608 µM [falling, single point]"
same,activation,[17],inconclusive: 0.154% [at 95.1 µM]
same,Potency,[6],"inconclusive: 24.9 µM [cytotoxic, single point]"
same,"viability change, negative = cytotoxic",[11],inconclusive: 1.72% [cytotoxic] [at 80.4 µM]
same,Potency,[1],inactive
same,Potency,[2],inactive
same,Potency,[15],"inconclusive: 27.7 µM [activator, single point]"
same,Potency,[3],"inconclusive: 22 µM [activator, partial curve]"
same,Potency,[4],"inconclusive: 80.8 µM [inhibitor, single point] and inactive"
C=CC(=O)OCCCCCC(C)C,Potency,[17],inactive
same,Potency,[9],"inconclusive: 90.8 µM [rising, single point]"
same,Potency,[13],active: 80.9 µM
same,Potency,[1],inconclusive: 72.8 µM [activator]
same,Potency,[12],"inconclusive: 72.8 µM [rising, partial curve, poor fit]"
same,Potency,[7],"inconclusive: 16.3 µM [cytotoxic, single point]"
same,Potency,[16],inactive
same,Potency,[15],"inconclusive: 16.2 µM [activator, full curve, poor fit]"
CCOP(=S)(OCC)SCS(=O)(=O)C(C)(C)C,Potency,[18],inactive
O=c1oc2ccccc2c(O)c1C1CCCc2ccccc21 (stereo not given),Potency,[2],inactive
same,Potency,[15],inactive
same,Potency,[3],"inconclusive: 30.6 µM [activator, partial curve]"
same,Potency,[4],"inconclusive: 89.4 µM [inhibitor, single point]"
CC(C)c1ccc(NC(=O)N(C)C)cc1,activation,[17],inconclusive: -0.386%
same,activation,[13],inconclusive: 5.05% [phenotype inactive]
same,Potency,[2],active: 13.7 µM
same,Potency,[5],"inconclusive: 0.243 µM [cytotoxic, single point]"
same,Potency,[18],"inconclusive: 1.79 µM [cytotoxic, single point]"
